Reference: PubChem BioAssay AID1948 (National Center for Advancing Translational Sciences (NCATS), 2009)
About 20 (0.02%) of roughly 110,000 compounds were called active. Inconclusive means that the source gave no clear call. Such entries were picked first, then a sample of the others. The call rests on the fitted dose curve; in most records, active means well fitted activation curve with a large enough effect; inconclusive means small, poorly fitted or top-dose-only effect; inactive means no such curve, though single readings can be large or run the other way. No potency is given beside an inconclusive call; the fits are too rough.

assay: qHTS Assay for Compounds that Induce Erasure of Genomic Imprints; details: mouse ES Peg3-LacZ reporter, beta-gal luminescence, 40 h; activity change, positive = activation: at 10.9 µM (top of the series) unless noted;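 on activity change, positive = activation: 0% = negative control wells on the plate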
Excerpt: qHTS Assay for Compounds that Induce Erasure of Genomic Imprints NIH Chemical Genomics Center [NCGC] NIH Molecular Libraries Screening Centers Network [MLSCN] Assay Submitter (PI): JEFFRIES, SEAN, NCGC, University of Cambridge NCGC Peg3 Imprinting Assay Overview Genomic imprinting is the epigenetic process whereby genes are expressed in a parent of origin fashion. […] Unlike some forms of epigenetic silencing that can be overcome by overexpression of transcription factors, genomic imprinting stably represses the expression of one allele despite potentially high levels of expression from the other allele. […] During mouse embryonic day 11.5 imprints are erased in PGCs so that sex specific imprints can be reestablished during gametogenesis. Embryonic germ (EG) cells can be derived from developing PGCs at embryonic day 11.5 and these cells often lack genomic imprints. […] Embryonic stem (ES) cells are a cell type similar to EG cells in phenotype and transcriptional profile, yet ES cells maintain genomic imprints. This similarity between ES and EG cells prompted us to use ES cells to look for factors which could induce imprint erasure. To investigate the stability of genomic imprinting, ES cells were derived from mice with an insertion of a LacZ-Neomycin reporter construct in the Peg3 locus. Peg3 is an imprinted locus where gene expression is restricted to the paternal allele. […] Using LacZ expression we are able to monitor the state of the Peg3 imprint. In order to dissect the mechanisms involved in imprint erasure using a forward chemical genetics approach we developed a cell based phenotype assay using an endogenous silence imprinted locus. This assay utilizes maternally inherited Peg3LacZ-Neo ES cells by monitoring the LacZ expression from the normally silent Peg3 allele. To facilitate screening, high-density feeder-free ES cell culture has been optimized so that ES cells can be grown in 1536 for over four days without feeding or washes. The assay uses a luminescence based read out for LacZ activity and is a homogenous assay optimal for HTS.
NCGC Peg3 Imprinting Assay Protocol Summary ES cell lines were derived from blastocysts taken from Peg3LacZ-Neo x129 matings. Lines were sexed and genotyped for the Peg3LacZ-Neo allele. Female cells carrying the reporter allele were used in this study. Cells were derived on a layer of mouse embryonic fibroblasts and passaged multiple times before switching to feeder free culture. Cells were maintained feeder free on gelatin coated dishes in DMEM/F12 media supplemented with 15% FBS, 2mM L-glutamine, 100 units/ml penicillin, 100ug/ml streptomycin, 0.1mM MEM nonessential amino acids, 1mM sodium pyruvate, 0.1% sodium bicarbonate, 0.1mM 2-Mercaptoethanol, and 400 units/ml leukemia inhibitory factor (LIF) at 37C with 5% CO2. The assay was performed in 1536-well format. A single luminescence read was taken at the end of the assay and the data was normalized by plate to internal negative controls. Maximum efficacy and AC50 values were calculated from dose-response data using the standard Hill equation. 1536 well plates were filled with 0.5ul of 0.1% gelatin per well, spun down and incubated for at least 30 min at 37C. The ES cells were then trypsini Peg3 1536-well assay protocol: (1)Plate 0.5ul/well 0.1% gelatin in white tissue culture treated 1536-well plates, spin and incubate at 37C for at least 30 min. (2)Add 5ul/well (300 cells) of ES cell suspension from freshly trypsinized cells and incubate at 37C, 5% CO2 for 40 hours. (3)Add 5ul/well of freshly prepared BetaGlo solution and incubate at room temperature for 5 minutes. (4)Read luminescence on the ViewLux plate reader. Keywords Genomic Imprinting, Germ Cells, Embryonic Stem Cell, DNA Methylation, Peg3, qHTS, NIH roadmap, NCGC
Potency means the concentration at half of the fitted maximal effect; tags describe the fitted curve by direction and shape.

| SMILES | activity change, positive = activation | Potency |
| --- | --- | --- |
| O=C(c1ccccc1Cl)N1CCCC(c2nc3c(nnn3Cc3ccc(F)cc3F)c(=O)[nH]2)C1 (configuration not stated) | inconclusive: 115% [activator] | – |
| CSc1nc(N2CCOCC2)c2ccccc2n1 | inactive: -4.81% [at 60.7 µM] | – |
| O=c1c(-c2ccc(F)cc2)nc2cnc(N3CCOCC3)nc2n1C1CC1 | – | inconclusive [activator, full curve, poor fit] |
| CC(NCCc1ccc(O)cc1)C(O)c1ccc(O)cc1 (configuration not stated) | – | inconclusive [activator, single point] |
| COc1ccc(N2CCN(c3oc(-c4ccccc4C)nc3S(=O)(=O)c3ccccc3)CC2)cc1 | inactive: -20.4% | – |
| CCCC12CN3CC(C)(CN(C1)C31CCCCC1)C2=O | – | inconclusive [activator, single point] |
| CCN(CCCNC(=O)CSc1cc(=O)n(C)c2cc(Cl)ccc12)c1ccccc1 | inactive: 6.92% | – |
| CCN(CC)CCOC(=O)c1ccc(NC(=O)CSc2cc(=O)n(CC)c3ccccc23)cc1 | inconclusive: 38.2% [activator] | – |
| COC(=O)c1ccc2c(=O)sc(N3CCC(C(N)=O)CC3)nc2c1 | – | inconclusive [activator, partial curve] |
| COc1ccc(NC(=O)C2=C(C)Nc3c(C(=O)Nc4ccc(C)cc4)cnn3C2c2cccc(Cl)c2)cc1 (configuration not stated) | inconclusive: 34.6% [activator] | – |
| CCOc1ccc(NC(=O)N2CCN(CC)CC2)cc1 | – | inconclusive [activator, single point] |
| COc1cc2nc(NCc3ccccc3)n3nc(-c4ccccc4)nc3c2cc1OC | inconclusive: 44.2% [activator] | – |
| Cc1ccc(-n2cnc3cc(C(=O)NCc4ccccc4Cl)ccc32)c(C)c1 | inconclusive: 62.5% [activator] | – |
| Cc1c(S(=O)(=O)O)oc2c1C(=O)C(=O)c1c-2ccc2c1CCCC2(C)C | – | inconclusive [activator, full curve, poor fit] |
| Cc1cc2ccc(OC(=O)c3ccc(N=C(N)N)cc3)cc2oc1=O | inactive: -3.41% | – |
| c1cc(CNCCN2CCNCC2)ccn1 | – | inconclusive [activator, single point] |
| Clc1ccccc1-c1nc(NCc2cccs2)c2ccccc2n1 | – | inconclusive [activator, full curve, poor fit] |
| COc1ccccc1NC(=O)C1CCC(CNS(=O)(=O)c2ccc3c(c2)CC(C)N3C(C)=O)CC1 (configuration not stated) | inconclusive: 97.3% [activator] | – |
| Cc1ccnc(NC(=O)CCc2c(C)nc3ncnn3c2C)c1 | – | inconclusive [activator, single point] |

| SMILES | activity change, positive = activation | Potency |
| --- | --- | --- |
| CC(=O)c1cccc(NC(=O)c2cc3c(s2)-c2c(C)cccc2OC3)c1 | inactive: -15.7% | – |
| N#CCCn1c(=O)c(-c2cc(F)cc(F)c2)nc2cnc(Oc3ccccc3)nc21 | – | inconclusive [activator, single point] |
| COc1ccc(CNC(=O)CS(=O)Cc2nc(-c3ccccc3C)oc2C)cc1 (configuration not stated) | inactive: -3.65% [at 60.7 µM] | – |
| O=C(c1cccc(F)c1)N1CCN(C(=O)c2cc(-c3ccc(Cl)cc3Cl)on2)CC1 | – | inconclusive [activator, single point] |
| COc1ccc(NC(=O)Cc2csc(COc3cccc(C)c3)n2)c(OC)c1 | inconclusive: 30.2% [activator] | – |
| COc1cccc2c1NC(C(=O)O)C1CC=CC21 (configuration not stated) | – | inconclusive [activator, single point] |
| O=C(O)c1n[nH]c2c1CCCCC2 | – | inconclusive [activator, single point] |
| Cc1ccc(NC(=O)Cn2ncn3c(cc4ccccc43)c2=O)cc1C | inactive: 14.5% | – |
| COC(=O)c1ccc(NC(=O)CSc2nc3cc4ccccc4cc3[nH]2)cc1 | inactive: -13.1% | – |
| CCc1ccc(-c2nc(CSCC(=O)NCc3ccc(C)cc3)c(C)o2)cc1 | inactive: -16.6% | – |
| CC(C)(C)OC(=O)N1CCC(c2c(C(=O)N3CCN(c4ncccn4)CC3)cnn2-c2cccc(F)c2)CC1 | inconclusive: 32.4% [activator] | – |
| Cc1ccc(-n2nnnc2SCc2nnc(-c3ccccc3Br)o2)cc1 | – | inconclusive [activator, single point] |
| O=C1c2cccc(O)c2C(=O)c2c(O)cccc21 | – | inconclusive [activator, single point] |
| COc1ccc(NC(=O)c2sc3nc4c(cc3c2N)CN(Cc2ccccc2)CC4)cc1OC | inconclusive: 95.6% [activator] | – |
| Cc1csc(SCC(=O)Nc2ccc(Cl)cn2)n1 | – | inconclusive [activator, partial curve] |
| CC(C)OCCCNC(=O)c1c(N)n(/N=C/c2ccccn2)c2nc3ccccc3nc12 | inactive: -5.18% [at 60.7 µM] | – |
| COc1ccc(C(=O)Nc2ccccc2C(=O)OCc2cc(=O)n3nc(C4CC4)sc3n2)cc1 | inconclusive: 30.4% [activator] | – |
| O=C(C1CCC(Cn2c(=O)[nH]c3ccccc3c2=O)CC1)N1CCN(c2ccccc2)CC1 (configuration not stated) | – | inconclusive [activator, single point] |
